From paper PMC12136788
This is one part of the list.

B1: chr2:61705333:61705334:-_ENSG00000082898_ENST00000401558|hu_mus|FALSE|FALSE (ssRNA)
RNA: GGGAGUUCUACAGUCCGACGAUCUCGACAAGCGACAGCACACACACACACACACAAACAAAAAGAACUGUGUAAAAAUAACUAACUGUUCCCAUAUUUUUGAAGUUGCUUUACAAUGGGAUGAUAUGCACAUGAUCUUGCUGCCAACAGAGGAUUGAGCAUCA
B2: 83009603_83012343_296_CDS_ENSMUSG00000034560_ENSMUST00000038388|mouse|control|control (ssRNA)
RNA: GGGAGUUCUACAGUCCGACGAUCCUUGUUUUCAGUCUUUAUGAGUUCCAAAAGGGAAGACUGCUCAUAGGGCAGAAGCUUUAAUGCUAUAGGAUCAAGAUUGAAAUCCCAAACAUCGCCAAUCAAAUCAUCUAGGGCGUCCUCCAACAGAGGAUUGAGCAUCA
B3: chr13:91842754:91842755:+_ENSMUSG00000003992_ENSMUST00000004094|mus_hu|FALSE|FALSE (ssRNA)
RNA: GGGAGUUCUACAGUCCGACGAUCAUAUGUUCAAUGCAGCAAGAAUUGCUGAUAUUAUUACUGUGAGAUGACGUGUAAAAAUAACACUAGGAACAGGUAGUAUACAUCAAGACCAACACGAAUGCAUUGAUAAAGAUGGAAAACCAACAGAGGAUUGAGCAUCA
B4: chr3:72423869:72423870:-_ENSG00000163602_ENST00000477973|hu_mus|motif|central (ssRNA)
RNA: GGGAGUUCUACAGUCCGACGAUCGCAGAAUUCAUAAAUAGACAUUUCUAUUUAAAGCAGGAAAAUGAUAAAGUGGCUUCGGAUAACAGUCGUGCACAUGCCAAUAACAGGAAUAUAUUAACAUCUUUUAUUUGCUAGACAAAGCAACAGAGGAUUGAGCAUCA
B5: chr13:49821539:49821540:+_ENSMUSG00000037851_ENSMUST00000165316|mus_mus|motif|central (ssRNA)
RNA: GGGAGUUCUACAGUCCGACGAUCUUCCCGAGCCAUGCCCUCAUCCACCAUUGACUGGUCAGGUGUGACAUCUAAGAGAACGGGAGCCUGAGCAUCAGAGUGUGCUUCAAACUGCGCGGUCCCUCCCGUGGCCUGGUCAAAGGUCAACAGAGGAUUGAGCAUCA
B6: chrX:129263551:129263552:-_ENSG00000156709_ENST00000287295|hu_hu|FALSE|FALSE (ssRNA)
RNA: GGGAGUUCUACAGUCCGACGAUCGGGCUGCAGUGGGUUUGCCAAUUCCACUGUGGGGCUUCAGUCUUCAUGAAUGUUGAAUAGUUUGGCUACUUCAUUGAGAUCUUCAUGCUGCUCACCGUCCUUAAUGAUCUUCCUUGCUAUCAACAGAGGAUUGAGCAUCA
B7: chr17:62499630:62499631:-_ENSG00000108654_ENST00000581693|hu_hu|motif|central (ssRNA)
RNA: GGGAGUUCUACAGUCCGACGAUCGAGCACCACCGUAGAUACAAGUAGACUUCAAGCGACAUGCUCUACAAUAUUCAGCAGCGGCUUGCUGCACCUGUUGGGCCAGUUCCCGAGUUGGUGCCAGCACCAAACAAAUAGGCCCAUCAACAGAGGAUUGAGCAUCA
B8: 156853296_156855257_3438_CDS_ENSMUSG00000055485_ENSMUST00000069098|mouse|control|control (ssRNA)
RNA: GGGAGUUCUACAGUCCGACGAUCCUCCCGCUCUCUCUGCAGUGCAGCCUUCCAGUCAGGCCCGGGCCUCUCACUGGCACCCUUCCCAGCCUUCAGCUCCAUCUGCGAGGCGUGGCCCUUGAGCUCUGCACGCUCUGUCUCCCACAACAGAGGAUUGAGCAUCA
B9: 64413482_64415959_3374_CDS_ENSG00000118482_ENST00000393387|human|control|control (ssRNA)
RNA: GGGAGUUCUACAGUCCGACGAUCUUUUUUUGGAGAAAGAUCAUCUACAGGUGGUGCCAUUCGACCUAUGCAGAUUUUGCAGUUGAGAUCAAAAAGAUGCUGUCUGUGUUGACUAGUGGUAUCUUUAGACAUAGAGUCAACCUCCAACAGAGGAUUGAGCAUCA
B10: 34423294_34423414_806_3pUTR_ENSMUSG00000016308_ENSMUST00000016452|mouse|control|control (ssRNA)
RNA: GGGAGUUCUACAGUCCGACGAUCGAUAACUGCUUUGAGGCUGGAGAUGAGAUACAACAAAGGGACAUAUGCAAUUGUAAUGUUUGCAAGUAACCCAGGUACAGUACAUUGGAUUUCAAAUAAUGUCUCUGAUGCUCCACAGGACAACAGAGGAUUGAGCAUCA
B11: chrX:20248820:20248821:+_ENSMUSG00000001924_ENSMUST00000001989|mus_mus|mus_mus_mus_hu_True|8_58 (ssRNA)
RNA: GGGAGUUCUACAGUCCGACGAUCGGCGAAGUCCGUCACCACAAAGUCAGGUUCUGCCAGUGAGGCCACCAAGGAUUUAAAACUAAUCUUCUUAGGUACUUUGACCUGACUGACGAUGCCUCCACGGAUGUAGUCAGAGAAGUUCAACAGAGGAUUGAGCAUCA
B12: chr2:155494191:155494192:-_ENSMUSG00000038324_ENSMUST00000041059|mus_mus|motif|central (ssRNA)
RNA: GGGAGUUCUACAGUCCGACGAUCCUCGUCACUUAUUUUUAGUUUCUGUCCCCGGAUAGAGAUGGUAGGCCUCAUAAGAAUUUCGGCAAGAAGAUCAACACCUCCAAAUAAGUCAAAAAUAUAUGUAUUUGGGUAUGUAGCUUCCAACAGAGGAUUGAGCAUCA
B13: chr14:66974463:66974464:+_ENSMUSG00000022044_ENSMUST00000074523|mus_hu|mus_mus_mus_hu_False|48_88 (ssRNA)
RNA: GGGAGUUCUACAGUCCGACGAUCUUGUAGGACGACUUAUUCAGGGGAUCAGACAAGAAGCAGGAGCAGAACAAGGACACCAGCGGGAGUUCCUUCAUCUUCUCUUUGUAGGCAGCAAGGGUCAUGUUUCUGGGAUCUGGUGGCCAACAGAGGAUUGAGCAUCA
B14: chr6:170627217:170627218:+_ENSG00000112584_ENST00000537664|hu_hu|motif|central (ssRNA)
RNA: GGGAGUUCUACAGUCCGACGAUCGUUACCUUUUUUGUCAAAGUUCUCUUUUACAGAGGUGUAGGACGAUAAGCAUUUGUACCGGAAGCUUUCAAACAUGCCCUCUGGGAUUAUGUCGUUGCCAAGGAGGCAGGCCAGAAGAGGCAACAGAGGAUUGAGCAUCA

Target: T1, UNK ZnF1-3 (human, UniProt Q9C0B0 31-174)
T1 sequence: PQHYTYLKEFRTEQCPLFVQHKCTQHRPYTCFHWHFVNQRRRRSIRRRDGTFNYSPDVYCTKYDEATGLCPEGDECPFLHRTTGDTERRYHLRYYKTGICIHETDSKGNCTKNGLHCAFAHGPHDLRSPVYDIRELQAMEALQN
Test: nsRBNS (natural sequence RNA bind-n-seq); RBNS binding buffer (assumed for nsRBNS): 25 mM Tris pH 7.5, 150 mM KCl, 3 mM MgCl2, 0.01% Triton X-100, 500 ug/ml BSA, 20 U/ml SUPERase-In, 4 C; UNK is unkempt and MSI1 is Musashi-1; names of the RNAs are library labels; protein concentration not given here; high values mean tight binding

| Binder | binding signal [enrichment R] |
| --- | --- |
| B1 | 0.931 |
| B2 | 1.01 |
| B3 | 0.868 |
| B4 | 1.4 |
| B5 | 0.852 |
| B6 | 0.594 |
| B7 | 1.25 |
| B8 | 0.653 |
| B9 | 0.84 |
| B10 | 1.82 |
| B11 | 1.07 |
| B12 | 1.45 |
| B13 | 2.09 |
| B14 | 1.18 |
